The list shows a part of the results.
Assays:
Experiment in all cases: glycan array binding signal (z-score within array); higher = stronger binding
Details in all cases: glycan notation: IUPAC condensed, linker removed
[1] = molecular target: Man(a1-2)Man(a1-3)[Man(a1-2)Man(a1-6)]Man(a1-6)[Man(a1-2)Man(a1-2)Man(a1-3)]Man
How it was run: (§1)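 Glycan array data were curated from 3228 arrays in the Consortium for Functional Glycomics database and kept only where the protein sequence was available. Glycan names were converted to IUPAC-condensed notation, and columns mapping to the same glycan were averaged. The binding signal is a within-array Z-score, averaged across arrays of the same protein sequence at different concentrations or buffers and across linkers. Negative Z-scores can be read as non-binding.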

[2] = molecular target: Man(a1-2)Man(a1-3)[Man(a1-2)Man(a1-6)]Man(a1-6)[Man(a1-2)Man(a1-2)Man(a1-3)]Man(b1-4)GlcNAc(b1-4)GlcNAc
How it was run: as §1

[3] = molecular target: Man(a1-2)Man(a1-3)[Man(a1-6)]Man(a1-6)[Man(a1-2)Man(a1-3)]Man(b1-4)GlcNAc(b1-4)GlcNAc
How it was run: as §1

[4] = molecular target: Man(a1-2)Man(a1-6)[Man(a1-3)]Man(a1-6)[Man(a1-2)Man(a1-2)Man(a1-3)]Man
How it was run: as §1

[5] = molecular target: Man(a1-2)Man(a1-6)[Man(a1-3)]Man(a1-6)[Man(a1-2)Man(a1-2)Man(a1-3)]Man(b1-4)GlcNAc(b1-4)GlcNAc
How it was run: as §1

[6] = molecular target: Man(a1-3)[Man(a1-6)]Man
How it was run: as §1

[7] = molecular target: Man(a1-3)[Man(a1-6)]Man(a1-6)[Man(a1-2)Man(a1-3)]Man(b1-4)GlcNAc(b1-4)GlcNAc
How it was run: as §1

[8] = molecular target: Man(a1-3)[Man(a1-6)]Man(a1-6)[Man(a1-3)]Man
How it was run: as §1

[9] = molecular target: Man(a1-3)[Man(a1-6)]Man(a1-6)[Man(a1-3)]Man(b1-4)GlcNAc(b1-4)GlcNAc
How it was run: as §1

[10] = molecular target: Man(a1-3)[Man(a1-6)]Man(b1-4)GlcNAc(b1-4)GlcNAc
How it was run: as §1

[11] = molecular target: Man(a1-3)[Man(a1-6)]Man(b1-4)GlcNAc(b1-4)[Fuc(a1-6)]GlcNAc
How it was run: as §1

[12] = molecular target: Man(a1-6)Man
How it was run: as §1

[13] = molecular target: Man(b1-4)GlcNAc
How it was run: as §1

[14] = molecular target: MurNAc(b1-4)GlcNAc
How it was run: as §1

[15] = molecular target: Neu5Ac(a2-3)Gal
How it was run: as §1

[16] = molecular target: Neu5Ac(a2-3)Gal(b1-3)GalNAc
How it was run: as §1

[17] = molecular target: Neu5Ac(a2-3)Gal(b1-3)GalNAc(b1-3)Gal(a1-4)Gal(b1-4)Glc
How it was run: as §1

[18] = molecular target: Neu5Ac(a2-3)Gal(b1-3)GalNAc(b1-4)[Neu5Ac(a2-3)]Gal(b1-4)Glc
How it was run: as §1

[19] = molecular target: Neu5Ac(a2-3)Gal(b1-3)GalNAc(b1-4)[Neu5Ac(a2-8)Neu5Ac(a2-3)]Gal(b1-4)Glc
How it was run: as §1

[20] = molecular target: Neu5Ac(a2-3)Gal(b1-3)GalNAc6S
How it was run: as §1

[21] = molecular target: Neu5Ac(a2-3)Gal(b1-3)GlcNAc
How it was run: as §1

[22] = molecular target: Neu5Ac(a2-3)Gal(b1-3)GlcNAc(b1-2)Man
How it was run: as §1

[23] = molecular target: Neu5Ac(a2-3)Gal(b1-3)GlcNAc(b1-2)Man(a1-3)[GlcNAc(b1-4)][Neu5Ac(a2-3)Gal(b1-3)GlcNAc(b1-2)Man(a1-6)]Man(b1-4)GlcNAc(b1-4)GlcNAc
How it was run: as §1

[24] = molecular target: Neu5Ac(a2-3)Gal(b1-3)GlcNAc(b1-2)Man(a1-3)[Neu5Ac(a2-3)Gal(b1-3)GlcNAc(b1-2)Man(a1-6)]Man(b1-4)GlcNAc(b1-4)GlcNAc
How it was run: as §1

[25] = molecular target: Neu5Ac(a2-3)Gal(b1-3)GlcNAc(b1-3)Gal(b1-3)GlcNAc
How it was run: as §1

[26] = molecular target: Neu5Ac(a2-3)Gal(b1-3)GlcNAc(b1-3)Gal(b1-4)GlcNAc
How it was run: as §1

[27] = molecular target: Neu5Ac(a2-3)Gal(b1-3)GlcNAc(b1-3)GalNAc
How it was run: as §1

[28] = molecular target: Neu5Ac(a2-3)Gal(b1-3)GlcNAc(b1-4)Gal(b1-4)Glc
How it was run: as §1

[29] = molecular target: Neu5Ac(a2-3)Gal(b1-3)GlcNAc(b1-6)GalNAc
How it was run: as §1

[30] = molecular target: Neu5Ac(a2-3)Gal(b1-3)GlcNAc6S
How it was run: as §1

[31] = molecular target: Neu5Ac(a2-3)Gal(b1-3)[Fuc(a1-4)]GlcNAc
How it was run: as §1

[32] = molecular target: Neu5Ac(a2-3)Gal(b1-3)[Fuc(a1-4)]GlcNAc(b1-3)Gal(b1-3)[Fuc(a1-4)]GlcNAc
How it was run: as §1

[33] = molecular target: Neu5Ac(a2-3)Gal(b1-3)[Fuc(a1-4)]GlcNAc(b1-3)Gal(b1-4)[Fuc(a1-3)]GlcNAc
How it was run: as §1

[34] = molecular target: Neu5Ac(a2-3)Gal(b1-3)[GlcNAc(b1-6)]GalNAc
How it was run: as §1

[35] = molecular target: Neu5Ac(a2-3)Gal(b1-3)[Neu5Ac(a2-6)]GalNAc
How it was run: as §1

[36] = molecular target: Neu5Ac(a2-3)Gal(b1-3)[Neu5Ac(a2-6)]GlcNAc(b1-3)[Fuc(a1-3)[Gal(b1-4)]GlcNAc(b1-6)]Gal(b1-4)Glc
How it was run: as §1

[37] = molecular target: Neu5Ac(a2-3)Gal(b1-3)]Neu5Ac(a2-3)Gal(b1-4)]GlcNAc
How it was run: as §1

B1: Clone730PsrP (Streptococcus pneumoniae) (protein)
chain: MDHHHHHHHHHHASENLYFQGAMVVGSQTAAATEATAKKVEEDRKKPASDYVASVTNVNLQSYAKRRKRSVDSIEQLLASIKNAAVFSGNTIVNGAPAINASLNIAKSETKVYTGEGVDSVYRVPIYYKLKVTNDGSKLTFTYTVTYVNPKTNDLGNISSMRPGYSIYNSGTSTQTMLTLGSDLGKPSGVKNYITDKNGRQVLSYNTSTMTTQGSGYTWGNGAQMNGFFAKKGYGLTSSWTVPITGTDTSFTFTPYAARTDRIGINYFNGGGKVVESSTT
glycan array binding signal (z-score) [1]: -0.585 | glycan array binding signal (z-score) [2]: 0.027 | glycan array binding signal (z-score) [3]: -0.558 | glycan array binding signal (z-score) [4]: -0.603 | glycan array binding signal (z-score) [5]: 0.366 | glycan array binding signal (z-score) [6]: 0.888 | glycan array binding signal (z-score) [7]: 1.08 | glycan array binding signal (z-score) [8]: 2.14 | glycan array binding signal (z-score) [9]: 0.242 | glycan array binding signal (z-score) [10]: -0.393 | glycan array binding signal (z-score) [11]: -0.591 | glycan array binding signal (z-score) [12]: 3.24 | glycan array binding signal (z-score) [13]: 1.13 | glycan array binding signal (z-score) [14]: 0.25 | glycan array binding signal (z-score) [15]: -0.123 | glycan array binding signal (z-score) [16]: -0.474 | glycan array binding signal (z-score) [17]: -0.298 | glycan array binding signal (z-score) [18]: 0.175 | glycan array binding signal (z-score) [19]: -0.389 | glycan array binding signal (z-score) [20]: -0.288 | glycan array binding signal (z-score) [21]: -0.231 | glycan array binding signal (z-score) [22]: 1.14 | glycan array binding signal (z-score) [23]: -0.581 | glycan array binding signal (z-score) [24]: 0.657 | glycan array binding signal (z-score) [25]: -0.479 | glycan array binding signal (z-score) [26]: -0.591 | glycan array binding signal (z-score) [27]: -0.389 | glycan array binding signal (z-score) [28]: -0.33 | glycan array binding signal (z-score) [29]: -0.281 | glycan array binding signal (z-score) [30]: 0.799 | glycan array binding signal (z-score) [31]: 0.489 | glycan array binding signal (z-score) [32]: -0.212 | glycan array binding signal (z-score) [33]: 0.277 | glycan array binding signal (z-score) [34]: -0.134 | glycan array binding signal (z-score) [35]: -0.191 | glycan array binding signal (z-score) [36]: -0.372 | glycan array binding signal (z-score) [37]: 0.45
